In article PMC5700166:
Only a part is listed here, and it is no random draw. The list includes weakly bound sequences.

What follows are sequences tested against T1, GST-Dm-Relish (UniProt Q94527) (assay: protein-binding microarray (PBM)). Settings: PBM: ~300 nM protein, 6 mM HEPES pH 7.8, 80 mM KCl, 0.5 mM EDTA, 0.5 mM EGTA, 6% glycerol, 35 ng/ul poly-dIdC, 1% milk, 1 h, room temperature; Ap Aiptasia and Nv Nematostella (sea anemones) / Co Capsaspora / Aq Amphimedon (sponge) / Dm Drosophila / Hu human; RHD is the Rel homology domain; high values mean tight binding; most listed sequences are background and not binding sites; double strand, one strand shown.
T1 sequence: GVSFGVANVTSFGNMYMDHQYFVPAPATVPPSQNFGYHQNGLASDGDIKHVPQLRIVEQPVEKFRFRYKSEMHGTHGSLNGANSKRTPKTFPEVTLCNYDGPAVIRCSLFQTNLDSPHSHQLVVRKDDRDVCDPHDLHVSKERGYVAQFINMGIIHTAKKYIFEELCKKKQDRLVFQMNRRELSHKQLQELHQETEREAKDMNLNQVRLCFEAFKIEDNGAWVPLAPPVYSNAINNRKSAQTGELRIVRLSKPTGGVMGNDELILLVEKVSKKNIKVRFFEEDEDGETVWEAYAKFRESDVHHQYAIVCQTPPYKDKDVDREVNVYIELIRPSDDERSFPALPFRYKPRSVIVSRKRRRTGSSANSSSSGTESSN

Sequence | binding signal [z-score]
CCGATTAACATCAACCATTCCCCTGATGTTAATCGGGTCTTGATTCGCTTGACGCTGCTG | 1.96
CCGATTAACATCAGGGGAGTCCATGATGTTAATCGGGTCTTGATTCGCTTGACGCTGCTG | 6.79
CCGATTAACATCAAATCTTCCCCTGATGTTAATCGGGTCTTGATTCGCTTGACGCTGCTG | 4.74
CCGATTAACATCAGGGACAAAAATGATGTTAATCGGGTCTTGATTCGCTTGACGCTGCTG | 0.953
CCGATTAACATCAGGAGAGCCCCTGATGTTAATCGGGTCTTGATTCGCTTGACGCTGCTG | 2.24
CCGATTAACATCAAAATCCCCCCTGATGTTAATCGGGTCTTGATTCGCTTGACGCTGCTG | 9.53
CCGATTAACATCATCAGGGGGGATGATGTTAATCGGGTCTTGATTCGCTTGACGCTGCTG | 4.27
CCGATTAACATCAATGGGATTCCTGATGTTAATCGGGTCTTGATTCGCTTGACGCTGCTG | 7.4
CCGATTAACATCAGAGTCCCCCCTGATGTTAATCGGGTCTTGATTCGCTTGACGCTGCTG | 5.14
CCGATTAACATCACAGTTCCCCCTGATGTTAATCGGGTCTTGATTCGCTTGACGCTGCTG | 3.79
CCGATTAACATCACGTAAGGGATTGATGTTAATCGGGTCTTGATTCGCTTGACGCTGCTG | 0.699
CCGATTAACATCAGGGGATGAACTGATGTTAATCGGGTCTTGATTCGCTTGACGCTGCTG | 7.62
CCGATTAACATCAAAAAATACCCTGATGTTAATCGGGTCTTGATTCGCTTGACGCTGCTG | 8.93
CCGATTAACATCAGGGATATACCTGATGTTAATCGGGTCTTGATTCGCTTGACGCTGCTG | 6.4
CCGATTAACATCAGAATTCCCGCTGATGTTAATCGGGTCTTGATTCGCTTGACGCTGCTG | 3.89
CCGATTAACATCAGGGAAAAGGATGATGTTAATCGGGTCTTGATTCGCTTGACGCTGCTG | -0.321
CCGATTAACATCAGGGAGTGCCCTGATGTTAATCGGGTCTTGATTCGCTTGACGCTGCTG | 3.85
CCGATTAACATCAGGGGGAAATATGATGTTAATCGGGTCTTGATTCGCTTGACGCTGCTG | 4.77
CCGATTAACATCAAATTGGGAAATGATGTTAATCGGGTCTTGATTCGCTTGACGCTGCTG | 0.456
CCGATTAACATCACCTTTCCCCCTGATGTTAATCGGGTCTTGATTCGCTTGACGCTGCTG | 2.89

Sequence | binding signal [z-score]
CCGATTAACATCAGGGATTCACCTGATGTTAATCGGGTCTTGATTCGCTTGACGCTGCTG | 9.89
CCGATTAACATCAAAATTCCCGTTGATGTTAATCGGGTCTTGATTCGCTTGACGCTGCTG | 5.57
CCGATTAACATCAGCCCCCCGTCTGATGTTAATCGGGTCTTGATTCGCTTGACGCTGCTG | 3.83
CCGATTAACATCAGGGGGAACGATGATGTTAATCGGGTCTTGATTCGCTTGACGCTGCTG | 2.42
CCGATTAACATCACCAATTTCCCTGATGTTAATCGGGTCTTGATTCGCTTGACGCTGCTG | 1.84
CCGATTAACATCAACTGGGAAAATGATGTTAATCGGGTCTTGATTCGCTTGACGCTGCTG | 0.347
CCGATTAACATCAAATTGCCCCCTGATGTTAATCGGGTCTTGATTCGCTTGACGCTGCTG | 3.33
CCGATTAACATCAGGGGGATCCATGATGTTAATCGGGTCTTGATTCGCTTGACGCTGCTG | 7.45
CCGATTAACATCAGGCACCCCCCTGATGTTAATCGGGTCTTGATTCGCTTGACGCTGCTG | 5.16
CCGATTAACATCAAAACCCCCCCTGATGTTAATCGGGTCTTGATTCGCTTGACGCTGCTG | 9.97
CCGATTAACATCAGGAGTCTCCCTGATGTTAATCGGGTCTTGATTCGCTTGACGCTGCTG | 0.485
CCGATTAACATCAAATTCCCATGTGATGTTAATCGGGTCTTGATTCGCTTGACGCTGCTG | 3.99
CCGATTAACATCAGGATTTTACCTGATGTTAATCGGGTCTTGATTCGCTTGACGCTGCTG | 3.21
CCGATTAACATCACTTGGGAAACTGATGTTAATCGGGTCTTGATTCGCTTGACGCTGCTG | 1.01
CCGATTAACATCAACAGGGAAAATGATGTTAATCGGGTCTTGATTCGCTTGACGCTGCTG | 1.32
CCGATTAACATCATGGAGGGAGGTGATGTTAATCGGGTCTTGATTCGCTTGACGCTGCTG | 0.416
CCGATTAACATCAAAAAGCCCCGTGATGTTAATCGGGTCTTGATTCGCTTGACGCTGCTG | 8.47
CCGATTAACATCACGTACTCCCCTGATGTTAATCGGGTCTTGATTCGCTTGACGCTGCTG | 4
CCGATTAACATCACATGGGAAACTGATGTTAATCGGGTCTTGATTCGCTTGACGCTGCTG | 0.399
